# Measured values: the supplement of paper PMC7826260
# The list shows a part of the results. One pool of 16,384 single-stranded DNAs met each Rep nickase domain in vitro for 1 h at 37 °C with 3 µM enzyme; only the middle of the 90-letter strands is printed. Values are log2 of uncut reads against the no-enzyme pool; the lower, the more was cut; hits are not called. The scaling is to total reads; values above 0 arise when much of the pool is cut.
# What was measured:
# Assay in all cases: uncleaved DNA left, log2 of reads against the no-enzyme library (log2 ratio); higher = less cleavage (more negative = more Rep cleavage of the k-mer); sequences stand for … in CTCGTCCG…ACCGGAGA
# [1] = system: T1, Rep nickase domain of Muscovy duck circovirus
# T1 sequence (residues 1-111 of Rep, tag left off): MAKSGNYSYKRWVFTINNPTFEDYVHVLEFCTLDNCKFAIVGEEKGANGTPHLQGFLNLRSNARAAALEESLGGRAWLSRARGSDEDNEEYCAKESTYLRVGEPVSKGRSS
# Experimental: (§1)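 A pool of 90-nt single-stranded DNAs with seven random bases just before the constant AC of the nick site (name = the seven bases) was cut by 3 µM recombinant His6-SUMO-tagged Rep nickase domain (300 nM DNA, 50 mM HEPES pH 8.0, 50 mM NaCl, 1 mM MnCl2, 1 h, 37 °C, three replicates). Uncut DNA was amplified and sequenced.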
# [2] = system: T2, Rep nickase domain of banana bunchy top virus
# T2 sequence (residues 1-94 of Rep, tag left off): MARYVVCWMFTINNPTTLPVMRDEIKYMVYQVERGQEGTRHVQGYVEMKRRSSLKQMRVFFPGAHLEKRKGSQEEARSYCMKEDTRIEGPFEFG
# Experimental: as §1
# [3] = system: T3, Rep nickase domain of cabbage leaf curl virus
# T3 sequence (residues 1-116 of Rep, tag left off): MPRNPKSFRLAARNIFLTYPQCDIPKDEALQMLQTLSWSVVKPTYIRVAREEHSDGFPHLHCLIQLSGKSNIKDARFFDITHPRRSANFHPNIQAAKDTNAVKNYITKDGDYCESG
# Experimental: as §1
# [4] = system: T4, Rep nickase domain of chickpea chlorotic dwarf virus
# T4 sequence (residues 1-124 of Rep, tag left off): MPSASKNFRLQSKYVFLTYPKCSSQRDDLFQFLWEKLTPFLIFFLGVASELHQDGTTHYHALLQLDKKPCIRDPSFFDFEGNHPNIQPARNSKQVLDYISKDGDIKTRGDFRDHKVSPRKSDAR
# Experimental: as §1
# [5] = system: T5, Rep nickase domain of faba bean necrotic yellows virus
# T5 sequence (residues 1-98 of Rep, tag left off): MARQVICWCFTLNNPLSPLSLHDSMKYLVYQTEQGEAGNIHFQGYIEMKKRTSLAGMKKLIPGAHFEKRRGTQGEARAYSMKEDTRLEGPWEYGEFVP
# Experimental: as §1
# [6] = system: T6, Rep nickase domain of maize striate mosaic virus
# T6 sequence (residues 1-117 of Rep, tag left off): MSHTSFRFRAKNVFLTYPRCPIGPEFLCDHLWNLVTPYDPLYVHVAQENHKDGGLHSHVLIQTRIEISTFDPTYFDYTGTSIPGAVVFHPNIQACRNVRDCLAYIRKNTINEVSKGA
# Experimental: as §1
# [7] = system: T7, Rep nickase domain of porcine circovirus 2
# T7 sequence (residues 2-116 of Rep, tag left off): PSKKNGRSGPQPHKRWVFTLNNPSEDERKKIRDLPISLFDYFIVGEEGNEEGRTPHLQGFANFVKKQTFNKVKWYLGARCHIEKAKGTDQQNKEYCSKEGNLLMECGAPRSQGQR
# Experimental: as §1
# [8] = system: T8, Rep nickase domain of tomato yellow leaf curl virus
# T8 sequence (residues 1-136 of Rep, tag left off): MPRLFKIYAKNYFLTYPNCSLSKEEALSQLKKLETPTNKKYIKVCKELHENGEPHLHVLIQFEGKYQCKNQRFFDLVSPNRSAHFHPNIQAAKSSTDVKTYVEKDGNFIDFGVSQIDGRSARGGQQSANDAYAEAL
# Experimental: as §1
# [9] = system: T9, Rep nickase domain of wheat dwarf virus
# T9 sequence (residues 1-137 of Rep, tag left off): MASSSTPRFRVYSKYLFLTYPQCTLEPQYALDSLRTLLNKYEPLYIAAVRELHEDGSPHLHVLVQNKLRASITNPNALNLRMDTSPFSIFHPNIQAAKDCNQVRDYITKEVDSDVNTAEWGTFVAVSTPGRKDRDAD
# Experimental: as §1
Sequence,uncleaved DNA left (log2) [1],uncleaved DNA left (log2) [2],uncleaved DNA left (log2) [3],uncleaved DNA left (log2) [4],uncleaved DNA left (log2) [5],uncleaved DNA left (log2) [6],uncleaved DNA left (log2) [7],uncleaved DNA left (log2) [8],uncleaved DNA left (log2) [9]
GAAATTG,0.0247,0.0352,-0.265,-0.283,0.0862,-0.921,0.144,0.0267,-0.0175
CTGTGAA,0.0911,-0.139,-0.104,-0.0372,0.0162,-0.483,-0.0178,0.112,-0.111
GTGAACT,0.0264,0.0939,0.381,0.806,0.0261,1.82,0.0298,0.0877,0.171
GTAGTAG,-0.0783,0.00558,-0.0667,0.0466,-0.0545,-0.326,0.0205,0.0148,0.0673
GCACATA,0.0101,-0.0443,0.073,0.624,-0.111,0.211,0.131,0.0357,0.0301
TACAGGA,0.127,0.105,0.248,0.47,0.11,-0.0817,0.24,0.00702,0.0462
TACGCAT,0.122,0.0401,-0.816,-2.5,0.105,-0.755,-0.185,-0.00358,-0.0897
GTGATCT,0.0794,0.15,0.4,0.962,0.0715,1.85,0.155,0.0919,0.0948
TGGAAGC,0.0646,0.0826,0.287,0.573,0.176,0.0816,0.344,0.138,0.0838
CGTCGCT,0.186,-0.0153,-0.323,-0.857,0.0463,-0.733,-0.0636,0.0824,-0.0641
AGTACGT,-0.012,-0.0499,0.112,0.0425,-0.0428,-0.0692,-3.25,0.00182,-0.0102
AGCACGC,-0.0922,0.0511,0.000486,0.207,-0.0664,0.0285,0.0817,-0.0611,-0.0166
ATGAAGG,0.07,0.0782,0.154,0.83,-0.0647,0.0652,-0.0025,-0.116,0.0333
GTTTATT,-2.57,-0.362,0.243,0.403,-0.0316,1.65,-2.66,0.0996,0.0168
ACCCAGG,0.0884,0.218,-0.25,0.0499,0.0633,-0.683,0.166,0.0777,0.121
TTTGGGT,-0.0622,-0.109,-0.117,0.102,-0.138,-0.122,-0.000792,-0.115,-0.108

Sequence,uncleaved DNA left (log2) [1],uncleaved DNA left (log2) [2],uncleaved DNA left (log2) [3],uncleaved DNA left (log2) [4],uncleaved DNA left (log2) [5],uncleaved DNA left (log2) [6],uncleaved DNA left (log2) [7],uncleaved DNA left (log2) [8],uncleaved DNA left (log2) [9]
ATTCATG,0.0372,0.00255,-0.678,-0.707,0.0102,-1.12,0.0622,0.0291,-0.131
TAAACCG,-0.0316,-0.0147,-0.871,-1.43,0.0604,-1.11,0.0588,0.0371,-0.121
TATTATG,-0.361,-0.0588,-0.415,-0.707,0.0438,-1.06,0.024,0.055,-0.0125
CCAGCTA,-0.0931,-0.0157,-0.0451,-0.366,-0.0338,0.087,-0.0127,-0.143,-0.0585
TTTTGCG,-0.135,-0.137,0.0626,0.975,-0.000292,1.3,-0.0539,-0.364,-0.0995
TTAAATC,0.111,0.0996,0.265,-0.514,0.0506,-0.301,0.104,0.00878,0.0251
GCGCGCC,-0.033,-0.231,-0.257,-0.121,-0.212,-0.29,-0.0813,-0.249,-0.17
TACTTTT,-3.95,-3.41,-3.34,-3.38,-0.427,-1.31,-4.26,0.162,-1.57
CCACCAC,-0.195,0.0413,-0.066,-0.909,-0.149,-0.678,-0.101,-0.0539,-0.0314
ATGGTCG,-0.0477,-0.068,-0.91,0.0423,-0.0991,-1.02,0.0445,-0.00773,-0.133
TACGCCC,-0.0579,-0.205,-0.33,-0.79,-0.146,-0.701,-0.191,-0.127,-0.128
CGTCGTA,0.0771,-0.0305,-0.0715,-0.398,0.0852,-0.321,-0.0523,0.0873,-0.0518
TGAGAAA,0.236,0.313,0.46,0.363,0.218,0.188,0.219,0.156,0.176
TGTTGAA,-0.0117,-0.0244,-0.00334,-0.131,-0.103,-0.114,-0.0809,-0.0049,-0.121
GTTAACA,0.0843,0.029,0.271,0.773,-0.143,1.82,0.0169,0.11,0.203
CACTTCT,-3.22,-3.53,-1.06,-3.23,-0.229,-1.28,-3.86,0.0261,-0.235
